In brackets after ≈: the same amount, converted by molar mass. Like-named read-outs stand apart in the source and are kept apart here.
Assays:
ChromlogD assay = test: ChromlogD assay
Description: The Chromatographic Hydrophobicity Index (CHI)[22] values were measured using reversed phase HPLC column (Luna C18 (2), Phenomenex, UK) with a fast acetonitrile gradient at starting mobile phase of pH = 7.4. CHI values are derived directly from the gradient retention times by using a calibration line obtained for standard compounds. The CHI value approximates to the volume % organic concentration when the compound elutes. […] The average error of the assay is ±3 CHI unit or ±0.25 ChromlogD.

[1] = CLND kinetic solubility assay; format: physicochemical; settings: phosphate buffered saline, pH 7.4, aqueous buffer, kinetic from dmso stock; Measured; read-out: Aq Sol
Description: 5 µL of 10 mM DMSO stock solution was diluted to 100 µL with pH 7.4 phosphate buffered saline, equilibrated for 1 hour at room temperature, filtered through Millipore MultiscreenHTS-PCF filter plates (MSSL BPC). The filtrate was quantified by suitably calibrated flow injection Chemi-Luminescent Nitrogen Detection.

[2] = test system: T. brucei brucei parasites (Lister 427 strain); test: Dose response growth inhibition assay (resazurin, 72 h); format: cell-based; settings: Trypanosoma brucei
Description: Greiner sterile black clear bottom 384-well assay plates were pre-dispensing with 200 nL of compound in each well, from master plates at 1 mM (100% DMSO) containing selection from the GSK compound collection. Controls of 0% response (control 1, 200 nL of 100%DMSO) and 100% response (control 2, 200 nL of 1 mM pentamidine) were included in each assay plate in columns 6 and 18, respectively. Plates containing 200 nL of 100% DMSO were included randomly in the assay, to assess quality through all process. […] After this period, 10 µL of 200 µM resazurin solution in prewarmed HMI-9 were added to each well, and plates were allowed to incubate 2 hours more prior fluorescence reading in a Wallac EnVision Multilabel Plate Reader (Perkin-Elmer). Raw fluorescent data from the Envision plate reader were uploaded into GSK HTS database (ActivityBase). Activity of each well was normalized as a percentage of inhibition per-plate basis using the following equation: [drawing 1]
For dose-response experiments, serial compound dilutions of selected hits from the primary campaign were plotted against compound concentration. Dose response master plates were prepared by 3-fold dilutions (starting with 10 mM DMSO stock solutions), providing 11 concentrations. From these master plates, 200 nL per well was stamped in final assay plates, including the same controls describe in the primary single shot assay. Compounds were dispensed as serial dilution curve format, with 11 points at 3-fold dilution and 40 µM as starting top concentration (n = 2). Growth inhibition assay was performed as described in previous assay.
A 4-parameter equation describing a sigmoidal dose-response curve was then fitted with an adjustable baseline using ActivityBase XE Runner software. Fitting of dose-response curves and EC50 determination were normalized as percentage of inhibition based on controls. The curve-fit model was based on a 4-parameter equation: [drawing 2]
Trypanosome cell culture. […]

Cytochrome P450 (CYP450) = Cytochrome P450 (CYP450) (Homo sapiens, UniProt P08684); test: Cytochrome P450 inhibition profile; format: in vitro ADME; settings: Measured
Description: The P450 inhibition profile of the inhibitors was determined as previously described.

[3] = biological target: T1, Human Serum Albumin (HSA) (Homo sapiens, UniProt P02768); test: Protein binding assay (HPLC stationary phase), HSA; format: in vitro ADME; settings: Measured
T1 construct: purchased Chiral Technologies, France
Description: Chemically bonded Human Serum Albumin (HSA) and Alpha-1-acidglycoprotein HPLC stationary phases (Chiral Technologies, France) were used for measuring compounds' binding to plasma proteins, applying linear gradient elution up to 30% iso-propanol. The run time was 6 min, including the re-equilibration of the stationary phases with the 50 mM pH7.4 ammonium acetate buffer. The obtained gradient retention times were standardised using a calibration set of mixtures as described in the references. The average standard error of the assay depends on the binding strength and kinetics of the compounds.

[4] = T. b. brucei growth inhibition, read-out: Tbb pEC50 (converted)
[5] = CYP3A4, VG substrate, read-out: CYP3A4VG pXC50 (converted)
[6] = CYP3A4, VR substrate, read-out: CYP3A4VR pXC50 (converted)

SMILES | PFI (ChromlogD assay) | solubility kinetic at 1 h [1] [µM] | IC50 (Cytochrome P450 (CYP450); [5]) [µM] | IC50 (Cytochrome P450 (CYP450); [6]) [µM] | HSA % binding [3] [%] | EC50 [2, 4] [µM] | EC50 ([2]; read-out: T brucei pEC50 (converted)) [µM]
O=S1(=O)Cc2ccc(Nc3nccc(-c4ccc(F)cc4)n3)cc2C1 [NEU-0001142] |  |  |  |  | 96.02 |  | 
Cc1[nH]nc(Nc2ccnc3[nH]ccc23)c1C [NEU-0001225] |  |  |  |  |  |  | 0.126
O=C(c1ccc(-c2ccnc(NCCc3ccc(O)cc3)n2)s1)N1CCNCC1 [NEU-0001172] | 5.12 | 71 (≈ 29.1 µg/mL) | 39.8 | 10 | 94.35 |  | 

Second part, led by results:

PFI (ChromlogD assay) | solubility kinetic at 1 h [1] [µM] | IC50 (Cytochrome P450 (CYP450); [5]) [µM] | IC50 (Cytochrome P450 (CYP450); [6]) [µM] | HSA % binding [3] [%] | SMILES | EC50 [2, 4] [µM] | EC50 ([2]; read-out: T brucei pEC50 (converted)) [µM]
5.55 | 4 (≈ 1.98 µg/mL) | 6.31 | 12.6 | 91.99 | NC(=O)c1ccccc1Nc1nc(NC2CCN(S(=O)(=O)C3CC3)CC2)ncc1Br [NEU-0001133] | 0.002 | 
 | 15 (≈ 4.95 µg/mL) | 3.16 | 0.794 |  | NC(=O)c1ccccc1Nc1nc(Nc2cc[nH]n2)ncc1Cl [NEU-0001135] | 0.126 | 

From paper PMC4207660, “Identification and Characterization of Hundreds of Potent and Selective Inhibitors of Trypanosoma brucei Growth from a Kinase-Targeted Library Screening Campaign” (PLoS Neglected Tropical Diseases, 2014)
